Assay results from PMC6919601, “Identification of Plasmodium dipeptidyl aminopeptidase allosteric inhibitors by high throughput screening” (PLoS ONE, 2019).
Out of some 110,000 compounds screened, about 230 (0.21%) showed an effect of 50% or more. This is one part of the list.

Biological target: DPAP1 (Plasmodium falciparum, UniProt Q8IIJ9)
Test: primary screen, percent inhibition; read by cleavage of a fluorogenic dipeptide substrate; higher = more effect of the substance
Parameters: species or system P. falciparum D10 trophozoite lysates; single well
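Also: 30 min substrate incubation versus DMSO and 10 µM JCP410 controls.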

Chain of DPAP1 (Q8IIJ9 whole entry, looked up): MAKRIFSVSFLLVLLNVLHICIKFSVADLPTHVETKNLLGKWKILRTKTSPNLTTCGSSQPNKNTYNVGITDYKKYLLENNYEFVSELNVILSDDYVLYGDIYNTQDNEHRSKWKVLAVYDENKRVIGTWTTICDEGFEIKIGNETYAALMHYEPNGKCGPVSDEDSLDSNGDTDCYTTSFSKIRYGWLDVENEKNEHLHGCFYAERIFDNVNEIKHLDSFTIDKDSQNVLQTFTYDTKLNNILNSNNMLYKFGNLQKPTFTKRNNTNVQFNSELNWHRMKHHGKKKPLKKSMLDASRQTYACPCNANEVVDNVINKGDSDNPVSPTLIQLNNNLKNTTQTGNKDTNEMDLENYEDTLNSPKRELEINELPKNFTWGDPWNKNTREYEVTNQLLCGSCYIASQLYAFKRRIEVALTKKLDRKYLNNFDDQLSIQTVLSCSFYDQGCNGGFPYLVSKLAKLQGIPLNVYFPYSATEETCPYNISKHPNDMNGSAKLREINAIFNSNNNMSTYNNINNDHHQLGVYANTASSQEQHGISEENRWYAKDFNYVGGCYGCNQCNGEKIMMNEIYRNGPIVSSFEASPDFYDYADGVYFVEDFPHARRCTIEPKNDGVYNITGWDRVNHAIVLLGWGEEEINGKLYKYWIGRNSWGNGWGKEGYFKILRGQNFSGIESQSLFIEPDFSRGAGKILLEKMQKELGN

| Structure (SMILES) | % Inhibition @ 10 uM [%] |
| --- | --- |
| C(#Cc1ccc(C#CCN2CCOCC2)cc1)CN1CCOCC1 | -2.77 |
| COCCCNC(=O)CS(=O)Cc1nc(-c2ccc(C)cc2)oc1C (centres unmarked) | -1.05 |
| C/N=C1\S/C(=C/c2cc3c(cc2OC)OCO3)C(=O)N1C | -3.29 |
| O=C1c2cccc3cccc(c23)C(=O)N1CC(=O)N1CCCc2ccccc21 | -5.13 |
| COc1cccc(-c2nn(C)c3sc(C(=O)NC4CCCCC4)cc23)c1 | 1.23 |
| COc1cc(C2C(C#N)=C(n3cccc3)OC3=C2C(=O)CC(C)(C)C3)ccc1O (centres unmarked) | -1.85 |
| COc1ccccc1CNC(=O)CCNS(=O)(=O)c1cccc2nonc12 | 5.85 |
| CCN(CC)CCCN1C(=O)C2C3C=CC(C2C1=O)C1C2C(=O)N(CCCN(CC)CC)C(=O)C2C31 (centres unmarked) | 1.05 |
| Cc1c(Cl)cccc1NS(=O)(=O)c1ccc(F)cc1 | 2.22 |
| O=C(Cc1ccccc1)Nc1ccncc1 | -3.27 |
| Cc1ccc(NC(=O)c2cccnc2Cl)cc1Cl | -5.98 |
| CC(C)NC(=O)C(C)n1cccc1C(=O)c1ccccc1 (centres unmarked) | 1.15 |
| COc1cc(/C=C\C(=O)Nc2c3c(nn2-c2ccc(F)cc2)CS(=O)(=O)C3)cc(OC)c1OC | 5.07 |
| CS(=O)(=O)N(CC(=O)NCc1ccncc1)c1cccc(F)c1 | 39.3 |
| CCN(CC)c1ncnc2c1c(-c1ccccc1)cn2-c1ccccc1 | -1.62 |
| CCOc1ccc(C(=O)N2CCC(Cc3ccccc3)CC2)cc1 | -1.04 |
| CCc1nc2cccnc2n1-c1ccc(CC(=O)N2CCN(Cc3ccccc3)CC2)cc1 | 11.1 |
| CCN1CCN(C(c2cccs2)C(C)NC(=O)CC(C)C)CC1 (centres unmarked) | 2.34 |
| COc1ccc(-n2c(C)cc(/C=C3/C(=N)N4OC(C)=CC4=NC3=O)c2C)cc1 | 3.43 |
| Sc1nnc(-c2ccco2)n1C1CCCCC1 | 5.75 |
| COc1cccc(CNC(=O)Cn2sc3ccccc3c2=O)c1OC | -8.41 |
| COc1ccc(OC)c(NC(=O)CN(c2ccc(OC)c(Cl)c2)S(C)(=O)=O)c1 | -1.43 |
| Cc1ccc(NC(=O)C(Cc2ccc([N+](=O)[O-])cc2)N2C(=O)c3ccccc3C2=O)c(O)c1 (centres unmarked) | 0.937 |
| O=C(CCn1cc(Br)cn1)N1CCN(C2C3CC4CC(C3)CC2C4)CC1 (centres unmarked) | -3.71 |
| CC1CCN(S(=O)(=O)c2ccc3c(ccn3CC(=O)NCC(C)c3ccccc3)c2)CC1 (centres unmarked) | 1.74 |

| Structure (SMILES) | % Inhibition @ 10 uM [%] |
| --- | --- |
| Cn1c2ccccc2c2cnn(CC(=O)N3CCN(C4CCCCC4)CC3)c(=O)c21 | 2.99 |
| CN1CCN(C(=O)C(c2ccccc2)c2ccccc2)CC1 | -0.261 |
| O=C(O)c1ccc2c(c1)[C@@H]1C=CC[C@@H]1[C@H](c1c(F)cccc1Cl)N2 | 4.83 |
| COc1ccc(CCNC(=O)Cc2c(C)c3cc(Cl)c(O)cc3oc2=O)cc1 | -2.57 |
| Cc1[nH]c2ccccc2c1SCC(=O)O | 3.82 |
| c1ccc2c(CCNC3CCCCCCC3)c[nH]c2c1 | -0.414 |
| COC(=O)C1=C(C)NC(=O)NC1c1ccc(Cl)cc1Cl (centres unmarked) | -1.82 |
| COc1ccc(O)c(/C=C/C(=O)c2c(O)cc(C)oc2=O)c1 | -4.01 |
| Cc1nnc(N2CCC(C(=O)NCCc3cccs3)CC2)c2nn(-c3ccc(Cl)cc3)c(C)c12 | 9.64 |
| Nc1c(Cl)cc2c(c1Oc1ccccc1)C(=O)c1ccccc1C2=O | -0.233 |
| CCOC(=O)C1=C(c2ccccc2)N(C)C(=O)NC1c1c(F)cccc1Cl (centres unmarked) | 0.146 |
| CCOc1cc2c(cc1OCC)C(c1cc(OC)c(OC)cc1OC)NCC2 (centres unmarked) | -2.74 |
| COc1ccc(Cl)cc1NS(=O)(=O)c1cc(Cl)ccc1Cl | 3.47 |
| Cc1cccc(CN(CCCN(C)C)CCCN(C)C)c1 | 1.08 |
| COc1ccc(-c2nc(C#N)c(N3CC(C)OC(C)C3)o2)cc1 (centres unmarked) | -3.21 |
| CCOc1ccc(/C=C2/SC(=O)N(CC(=O)N3CCN(c4ccccc4)CC3)C2=O)cc1OC | -5.34 |
| CC(NC(=O)CCc1ccccc1)c1cc2c(cc1Cl)OCCO2 (centres unmarked) | -6.92 |
| CC(C(=O)O)c1cc(C(=O)c2ccccc2)sc1-c1ccccc1 (centres unmarked) | 6.08 |
| COc1ccc(C/N=C/C2=C(O)CC(C)(C)CC2=O)cc1 | -2.5 |
| O=C1CCCC(=O)N1c1ccc(Oc2ccc(Cl)cc2)cc1 | 0.993 |
| CC1(C)OC(=O)C(/C=N/CCO)=C(O)O1 | 0.343 |
| Cc1ccc(C)c(S(=O)(=O)Nc2ccc(C(=O)N3CCCC3)cc2)c1 | -4.73 |
| COc1ccc2c(CNC3CCCCCC3)c(C(=O)O)n(Cc3ccc(F)cc3)c2c1 | -0.432 |
| COC(=O)c1sc2nc(C)cc(C)c2c1N | -1.38 |
| CN1C(=O)CC(C(=O)Nc2ccc(C(=O)O)cc2)S/C1=N\c1cccc(F)c1 (centres unmarked) | -3.78 |

| Structure (SMILES) | % Inhibition @ 10 uM [%] |
| --- | --- |
| COc1ccc(/C=C2/SC(=O)N(CC(=O)Nc3ccccc3O)C2=O)cc1 | -16.1 |
| CCN1CCC(C#N)(NC(=O)[C@H](Cc2c(F)cccc2F)NC(=O)c2ccc(-c3cc(C(=O)O)ccc3Cl)cc2)CC1 | -3.48 |
| CCc1nn(CC(=O)NCc2ccc(C)o2)c(=O)c2cc3c(OC)cccc3n12 | 4.84 |
| COc1cccc(C2Nc3ccc(C(C)=O)cc3C3C=CCC32)c1OC (centres unmarked) | -3.19 |
| CC1CCC(NC(=O)c2ccc(CSCc3cccc(F)c3)o2)CC1 (centres unmarked) | -4.53 |
| CC(=O)CS(=O)(=O)c1ccc(-c2ccc(S(=O)(=O)CC(C)=O)cc2)cc1 | -0.687 |
| CCCCN(CC)Cc1csc(C)c1CC | -3.32 |
| CCOC(=O)c1cc(-c2nnc(-c3ccccc3OC)o2)c(C)nc1C | -1.47 |
| Cc1ccc(S(=O)(=O)c2nc(-c3ccc(Cl)cc3)oc2NCCCN2CCOCC2)cc1 | -1.43 |
| Cc1nn(-c2ccccc2)c(C)c1CC(=O)O | -6.99 |
| O=C(CN(c1ccc(F)cc1)S(=O)(=O)c1ccccc1)NCc1ccco1 | 5.5 |
| O=C(CC1(O)C(=O)Nc2ccc(Br)cc21)c1ccc(Cl)cc1 (centres unmarked) | 4.74 |
| Cc1nn(C(C)C(=O)NC2CCCCCC2)c(=O)c2c1sc1ccccc12 (centres unmarked) | -0.229 |
| Cc1oc2ncnc(N3CCOCC3)c2c1C(=O)N(CCN(C)C)Cc1ccco1 | 2.09 |
| Cc1cc(C(=O)NCc2ccccn2)c2c(C)nn(-c3ccccc3)c2n1 | -6.03 |
| CCCCN(C1CCN(C)CC1)S(=O)(=O)c1csc(C(N)=O)c1 | -3.05 |
| CCCN(CCC)S(=O)(=O)c1ccc(C(=O)NCc2nnc(S)n2-c2ccccc2)cc1 | 4.95 |
| CCc1ccc(-c2ncccc2O)cc1N | -0.999 |
| CC(=O)Nc1ccc(-c2cc(-c3ccc(NC(C)=O)cc3)nc(-c3ccc([N+](=O)[O-])cc3)n2)cc1 | -4.49 |
| Cn1c(=O)n(C)c2cc(C=C3C(=O)NC(=S)NC3=O)ccc21 | 4.68 |
| Cc1ccccc1C(=O)NC1CCSC1=O (centres unmarked) | 3.85 |
| Cc1c2cnn(CC(=O)NCc3cccnc3)c(=O)c2c(C)n1Cc1ccccc1F | -2.17 |
| Cc1c(C(=O)NC2CCN(Cc3ccccc3)CC2)sc2nc3n(c(=O)c12)CCCC3 | -6.34 |
| CC1(C)Cc2ccccc2C(C(Cc2ccccc2)C(N)=O)=N1 (centres unmarked) | -2.39 |
| CN1C/C(=C/c2ccc(Br)o2)C(=O)/C(=C/c2ccc(Br)o2)C1 | -4.65 |

| Structure (SMILES) | % Inhibition @ 10 uM [%] |
| --- | --- |
| O=C(c1cc2c(s1)-c1ccccc1OC2)N1CCN(Cc2ccccc2)CC1 | -1.37 |
| CC1(C)OC(C)(C)/C(=C\c2ccccc2)C1=O | -6.28 |
| Cn1c(=O)c2c(nc(CN3CCc4ccccc4C3)n2CCCc2ccccc2)n(C)c1=O | 59.1 |
| COc1ccc(CN(C)S(=O)(=O)c2nnc(NC(=O)/C=C/c3ccccc3)s2)cc1OC | 0.361 |
| Cc1cccc(CSCCNC(=O)c2ccc(Cl)cc2)c1 | 2.01 |
| COc1ccc(C2CC3=Nc4ccccc4NC(c4ccco4)C3=C(O)C2)cc1 (centres unmarked) | 8.85 |
| CC(C)NCC(O)C1COc2ccccc2O1 (centres unmarked) | -2.63 |
| CCOc1ccc(CN2CCC(N3CCOCC3)CC2)cc1 | -3.56 |
| CCSc1nnc(NC(=O)c2ccc3c(c2)CC(c2ccccc2)OC3=O)s1 (centres unmarked) | 41.3 |
| CC(C)(C)c1ccc(OCc2nn3c(-c4ccncc4)nnc3s2)cc1 | 21.2 |
| CC(C)(C)CC(C)(C)c1ccc(OCC(=O)Nc2nccs2)cc1 | 8.74 |
| CC(=O)C1=C(C)NC(=O)C(C#N)C1c1ccncc1 (centres unmarked) | 0.746 |
| CSc1ncc(C(=O)Nc2cccnc2)c(C)n1 | -0.742 |
| COc1ccc2c(CNCc3ccc(C)cc3)c(C(=O)O)n(Cc3cccc(F)c3)c2c1 | 1.94 |
| FC(F)(F)c1ccc(CN2CCN(Cc3ccccc3)CC2)cc1 | -5.57 |
| CCN(CC)CCn1c(NC(=O)COc2c(F)c(F)cc(F)c2F)nc2ccccc21 | 11.5 |
| CCOC(=O)N1CCC(NS(=O)(=O)c2ccc3nc(O)ccc3c2)CC1 | -1.48 |
| CCOC(=O)C1CCN(S(=O)(=O)c2ccccc2)CC1 | 1.48 |
| O=C(CN1C(=O)S/C(=C\c2cccn2-c2cccc(C(=O)O)c2)C1=O)Nc1ccc(F)cc1 | 9.94 |
| CN1CCN(C/C=C/c2ccccc2)CC1 | 2.7 |
| CCCCN(C)C(=O)c1nc(-c2ccc(Cl)cc2)n2c1CCCCC2 | -0.48 |
| CNC(=S)NC12CC3CC(CC(C3)C1)C2 | -4.01 |
| CNS(=O)(=O)c1cn(CC(=O)NCc2ccc(OC)cc2)cc1S(=O)(=O)NC | 2.08 |
